The results in this text go back to the supplement of paper PMC11417369.

Some of the results follow.

The experiment has as its system PfHDP1 homeodomain (GST-tagged). Nature of the experiment: gcPBM binding intensity (ln(normalized median fluorescence intensity)); higher = stronger DNA binding. The procedure, abridged:
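Plasmodium falciparum DNA-binding domains carrying a GST tag were expressed in E. coli and applied for 1 h, at about 25 μg on average, to an Agilent 4 × 180k array. The array held primer-extended double-stranded 36-bp intergenic genomic probes together with negative controls, and binding took place in 1× PBS with 1% milk, 0.2 mg/ml BSA, 0.5% salmon testes DNA and 0.03% Triton X-100. An Alexa488 anti-GST antibody detected bound protein, and the array was scanned at 488 nm. Binding intensity is taken as the highest Masliner-normalised natural-log median intensity across replicate spots of either probe orientation.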
Consider “TTTAACGTTGAATATACACACATATATATATATATA [CACACA_site3698]”, for which the “gcPBM binding intensity (ln)” value stood at 9.32.

As for “AAGAAAAAATAAAAAATAAAAATAAAAAATAAAAAA [TGCATGCA_negctrl_site274]”, the “gcPBM binding intensity (ln)” value turned out to be 6.41.

Consider “TAAGGATGAATCCTTTGTACATATATATATATATAT [XGTACX_site1242]”, for which the “gcPBM binding intensity (ln)” value amounted to 9.34.

Turning to “GTTATACATTTTGATTGTACATAAACCATTTGAGCA [XGTACX_site7283]”, the “gcPBM binding intensity (ln)” value is 6.54.

Turning to “TGAAAAGAAAACACATGTACAAATATATAAATATAA [XGTACX_site6098]”, the “gcPBM binding intensity (ln)” value was 6.39.

With “TTTTTTTAAATATACACACACATTTATACATATATA [CACACA_site3400]”, the “gcPBM binding intensity (ln)” value was 6.78.

“ACAAAATTTACAAAATGTACAAAATTTACAAAATGT [XGTACX_site6464]”: the “gcPBM binding intensity (ln)” value worked out at 5.98.

In the case of “GAAGGAAAAACAGAATGTACATAAATAAACGTATAT [XGTACX_site753]”, the “gcPBM binding intensity (ln)” value worked out at 7.24.

With “TATATCTTACTTTTTGCACACACTAATATTATTGTT [CACACA_site1640]”, the “gcPBM binding intensity (ln)” value is 10.1.

“AATACGGCAAACATTAAAAAATATAATAACAATAAA [CACACA_negctrl_site868]”: the “gcPBM binding intensity (ln)” value came to 6.54.

Take “AAAAAATATTAATATAGTACTTTATATTTATAAGTA [XGTACX_site6895]”: the “gcPBM binding intensity (ln)” value worked out at 6.04.

On to “GGAAAAAATATATGCACACCCCCCAAAAAAAAAAAA [CACACA_site2222]”, for which the “gcPBM binding intensity (ln)” value is 9.67.

As to TTTTTGTTATTTTTAGTGCACATTTAAGGGTGTATT, the “gcPBM binding intensity (ln)” value stood at 9.92.

As for “TATATATATATATATATATATATGTATGTGCATTTA [TGCATGCA_negctrl_site53]”, the “gcPBM binding intensity (ln)” value amounted to 11.2.

In the case of “ATATAAAAATGTAAGGGTACATAATAAATAATCAAA [XGTACX_site5217]”, the “gcPBM binding intensity (ln)” value was determined as 6.55.

With “ATTTAGAAAAATAAAACACACATATATATGTAAATA [CACACA_site4113]”, the “gcPBM binding intensity (ln)” value worked out at 6.75.

Turning to “ATCTGTCGACAGGACAGTACACAGTAGCCAGGAAAT [XGTACX_site1994]”, the “gcPBM binding intensity (ln)” value was 6.79.

Consider “TATAATATTTACGACAGTACATATATATATATGTAT [XGTACX_site8332]”, for which the “gcPBM binding intensity (ln)” value is 6.41.

As for “AAATAATTTGTTGACACACACACACCCATACATATA [CACACA_site2285]”, the “gcPBM binding intensity (ln)” value came to 6.91.

In the case of “ATGGACTTTTATAGTTGTACATACTATGAGAACTTT [XGTACX_site2800]”, the “gcPBM binding intensity (ln)” value was 7.08.

In the case of “TAAAATAAATTGTGCACACATATTTATAAATATGAA [CACACA_site2331]”, the “gcPBM binding intensity (ln)” value is 10.7.

With “TACATATAAAAGTACACACACACACCCATATATATA [CACACA_site941]”, the “gcPBM binding intensity (ln)” value was 7.07.

For the sequence “GTTTATCACAGCCACGCACACATAATATATGTATAT [CACACA_site3669]”, the “gcPBM binding intensity (ln)” value came to 7.18.

Take “TATTGCCCGAAACACACACACATATATATATATATA [CACACA_site2491]”: the “gcPBM binding intensity (ln)” value amounted to 9.44.

For the sequence “GATATATAAACATATACACACAAAAACATATTTATA [CACACA_site6734]”, the “gcPBM binding intensity (ln)” value turned out to be 6.63.
